From publication PMC12820563, “FoxP3 forms a head-to-head dimer in vivo and stabilizes its multimerization on adjacent microsatellites”
Some of the results follow.

Molecular target: T1, MBP-FoxP1dN (Mus musculus, UniProt P58462 326-579)
T1 sequence: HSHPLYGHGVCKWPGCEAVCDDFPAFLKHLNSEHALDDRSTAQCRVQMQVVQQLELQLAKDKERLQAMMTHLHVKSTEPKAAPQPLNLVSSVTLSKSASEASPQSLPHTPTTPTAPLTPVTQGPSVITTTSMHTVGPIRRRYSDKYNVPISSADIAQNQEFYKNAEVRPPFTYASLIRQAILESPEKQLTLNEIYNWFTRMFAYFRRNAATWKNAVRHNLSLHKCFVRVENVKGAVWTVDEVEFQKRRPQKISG
Experiment: PD-seq (MBP pull-down with sequencing); 20 mM Tris-HCl pH 7.5, 100 mM NaCl, 1.5 mM MgCl2, 0.4 uM protein, 0.1 uM dsDNA library, 30 min, room temperature, amylose pull-down; high values mean tight binding
Settings: protein: recombinant; tags: His6-MBP; chain copies: 2; dsDNA, one strand shown
Outline: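 E. coli-expressed mouse FoxP3 or FoxP1 fragment, N-terminus removed and tagged with His6-MBP, was used at 0.4 µM against 0.1 µM of a Klenow-filled degenerate double-stranded DNA library. After 30 min at room temperature in Tris pH 7.5 buffer with NaCl and MgCl2, complexes were pulled down on amylose resin and washed three times. Binding is pull-down over input reads-per-million enrichment from pooled replicates of the proteinase K-released, PCR-barcoded, Illumina-sequenced DNA.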

Sequence	binding signal
GATGATTGTTCTCCCAGCTGATGAATTAAGTTGGTCGAGTAAACAAATTTTCCTAATCTTTCTGTTCAAGCGCCATCTAC	0.967 RPM ratio (pull-down/input)
GATGATTGTTCTCCCAGCTGATGAATTGGTGCTCTCGAGTAAACAAATTTTCCTAATCTTTCTGTTCAAGCGCCATCTAC	0.869 RPM ratio (pull-down/input)
GATGATTGTTCTCCCAGCTGATGAATTCCGGCTCTCGAGTAAACAAATTTTCCTAATCTTTCTGTTCAAGCGCCATCTAC	0.75 RPM ratio (pull-down/input)
GATGATTGTTCTCCCAGCTGATGAATTTGTACGCTCGAGTAAACAAATTTTCCTAATCTTTCTGTTCAAGCGCCATCTAC	1.13 RPM ratio (pull-down/input)
GATGATTGTTCTCCCAGCTGATGAATTTAGTAACTCGAGTAAACAAATTTTCCTAATCTTTCTGTTCAAGCGCCATCTAC	1.13 RPM ratio (pull-down/input)
GATGATTGTTCTCCCAGCTGATGAATTGAGTCGATCGAGTAAACAAATTTTCCTAATCTTTCTGTTCAAGCGCCATCTAC	0.913 RPM ratio (pull-down/input)
GATGATTGTTCTCCCAGCTGATGAATTGACGCTATCGAGTAAACAAATTTTCCTAATCTTTCTGTTCAAGCGCCATCTAC	1.15 RPM ratio (pull-down/input)
GATGATTGTTCTCCCAGCTGATGAATTTTAGCCTTCGAGTAAACAAATTTTCCTAATCTTTCTGTTCAAGCGCCATCTAC	0.931 RPM ratio (pull-down/input)
GATGATTGTTCTCCCAGCTGATGAATTCAAGTATTCGAGTAAACAAATTTTCCTAATCTTTCTGTTCAAGCGCCATCTAC	1.06 RPM ratio (pull-down/input)
GATGATTGTTCTCCCAGCTGATGAATTATCGCAATCGAGTAAACAAATTTTCCTAATCTTTCTGTTCAAGCGCCATCTAC	1.35 RPM ratio (pull-down/input)
GATGATTGTTCTCCCAGCTGATGAATTATAGAGGTCGAGTAAACAAATTTTCCTAATCTTTCTGTTCAAGCGCCATCTAC	0.854 RPM ratio (pull-down/input)
GATGATTGTTCTCCCAGCTGATGAATTGAATCGCTCGAGTAAACAAATTTTCCTAATCTTTCTGTTCAAGCGCCATCTAC	0.784 RPM ratio (pull-down/input)
GATGATTGTTCTCCCAGCTGATGAATTCGCAGTCTCGAGTAAACAAATTTTCCTAATCTTTCTGTTCAAGCGCCATCTAC	0.812 RPM ratio (pull-down/input)
GATGATTGTTCTCCCAGCTGATGAATTTACACGTTCGAGTAAACAAATTTTCCTAATCTTTCTGTTCAAGCGCCATCTAC	1.32 RPM ratio (pull-down/input)
GATGATTGTTCTCCCAGCTGATGAATTAATGCTATCGAGTAAACAAATTTTCCTAATCTTTCTGTTCAAGCGCCATCTAC	1.38 RPM ratio (pull-down/input)
GATGATTGTTCTCCCAGCTGATGAATTTCGGATTTCGAGTAAACAAATTTTCCTAATCTTTCTGTTCAAGCGCCATCTAC	0.834 RPM ratio (pull-down/input)

Sequence	binding signal
GATGATTGTTCTCCCAGCTGATGAATTAAGATTCTCGAGTAAACAAATTTTCCTAATCTTTCTGTTCAAGCGCCATCTAC	0.789 RPM ratio (pull-down/input)
GATGATTGTTCTCCCAGCTGATGAATTAGAATGTTCGAGTAAACAAATTTTCCTAATCTTTCTGTTCAAGCGCCATCTAC	0.908 RPM ratio (pull-down/input)
GATGATTGTTCTCCCAGCTGATGAATTGGACACGTCGAGTAAACAAATTTTCCTAATCTTTCTGTTCAAGCGCCATCTAC	0.927 RPM ratio (pull-down/input)
GATGATTGTTCTCCCAGCTGATGAATTCGCCGCCTCGAGTAAACAAATTTTCCTAATCTTTCTGTTCAAGCGCCATCTAC	0.826 RPM ratio (pull-down/input)
GATGATTGTTCTCCCAGCTGATGAATTTGTAGCTTCGAGTAAACAAATTTTCCTAATCTTTCTGTTCAAGCGCCATCTAC	1.07 RPM ratio (pull-down/input)
GATGATTGTTCTCCCAGCTGATGAATTCAGGCTTTCGAGTAAACAAATTTTCCTAATCTTTCTGTTCAAGCGCCATCTAC	0.856 RPM ratio (pull-down/input)
GATGATTGTTCTCCCAGCTGATGAATTGGTGTTGTCGAGTAAACAAATTTTCCTAATCTTTCTGTTCAAGCGCCATCTAC	2.78 RPM ratio (pull-down/input)
GATGATTGTTCTCCCAGCTGATGAATTAATGGCTTCGAGTAAACAAATTTTCCTAATCTTTCTGTTCAAGCGCCATCTAC	0.902 RPM ratio (pull-down/input)
GATGATTGTTCTCCCAGCTGATGAATTTTGAGGATCGAGTAAACAAATTTTCCTAATCTTTCTGTTCAAGCGCCATCTAC	0.856 RPM ratio (pull-down/input)
GATGATTGTTCTCCCAGCTGATGAATTTCCGCTCTCGAGTAAACAAATTTTCCTAATCTTTCTGTTCAAGCGCCATCTAC	0.747 RPM ratio (pull-down/input)
GATGATTGTTCTCCCAGCTGATGAATTGGCAACTTCGAGTAAACAAATTTTCCTAATCTTTCTGTTCAAGCGCCATCTAC	0.976 RPM ratio (pull-down/input)
GATGATTGTTCTCCCAGCTGATGAATTATTATGCTCGAGTAAACAAATTTTCCTAATCTTTCTGTTCAAGCGCCATCTAC	1.24 RPM ratio (pull-down/input)
GATGATTGTTCTCCCAGCTGATGAATTCAGCACGTCGAGTAAACAAATTTTCCTAATCTTTCTGTTCAAGCGCCATCTAC	0.901 RPM ratio (pull-down/input)
GATGATTGTTCTCCCAGCTGATGAATTGTGACGCTCGAGTAAACAAATTTTCCTAATCTTTCTGTTCAAGCGCCATCTAC	1.11 RPM ratio (pull-down/input)
GATGATTGTTCTCCCAGCTGATGAATTTGTGATATCGAGTAAACAAATTTTCCTAATCTTTCTGTTCAAGCGCCATCTAC	1.32 RPM ratio (pull-down/input)
